Experimental data taken from PubChem BioAssay (Tox21).
“And” between values parts separate entries of the source, which are not always exact repeats. Equal values may be shown once. The shares of active, inactive and inconclusive entries below differ from those in the screen. For some assays here: A potency beside an inconclusive call is a rough fit, not a confirmed value. More than one record can exist for a structure, and the calls need not agree. The source made the active and inactive calls. Unless noted, calls come from the whole dose curve; as a rule, active = well fitted curve in the direction sought with a large enough effect in the repeat runs; inconclusive = weak or mixed curves; inactive = no such curve, though single readings can be large; an effect the other way counts as inactive or inconclusive.

How the values were obtained:
[1] = qHTS RealTime-Glo MT Cell Viability Assay in HEK293 cells - 24 hour (AID 1224886); note: nearly all actives have a fitted effect of over 50% in size; note: potency is the fitted concentration of half-maximal effect
Method in brief: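 Nonlytic real-time viability readout: viable cells convert prosubstrate to NanoLuc substrate, giving luminescence proportional to live cell number. HEK293, 600 cells/well, compound added after 5 h, continuous culture at 37 C.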

[2] = qHTS RealTime-Glo MT Cell Viability Assay in HEK293 cells - 8 hour (AID 1224887); note: nearly all actives have a fitted effect of over 50% in size; note: potency is the fitted concentration of half-maximal effect
Method in brief: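 Real-time viability in HEK293: signal arises when living cells convert a prosubstrate for NanoLuc in the medium, so luminescence tracks viable cell number. Compound (23 nL, DMSO) added 5 h post-seeding; kinetic reads at 0–40 h, 37 C.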

[3] = A CellTox Green Cytotoxicity Assay to monitor cytotoxicity in HEK293 cells - 16 hour (AID 1224888); note: nearly all actives have a fitted effect of over 35% in size
Method in brief: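 Cells (HEK293, 600/well) and dye reagent are dispensed together. After 5 h at 37 C, 23 nL compound is pinned in. Plates stay at 37 C for 40 h with fluorescence read at 0h, 8h, 16h, 24h, 32h and 40h.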

[4] = qHTS assay to identify small molecule antagonists of the androgen receptor (AR) signaling pathway using the MDA cell line in the presence of 0.5 nM R1881 - cell viability counter screen (AID 1259242); note: nearly all actives have a fitted effect of over 45% in size; note: potency is the fitted concentration of half-maximal effect
Method in brief: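 Steps: plate MDA-kb2 cells, rest 5 hr at 37C without CO2; pin in compounds in DMSO; add R1881 to 0.5 nM final; incubate 16 hr; add CellTiter-Fluor, 30 min; read fluorescence.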

[5] = qHTS assay to identify small molecule antagonists of the sonic hedgehog signaling (Shh) pathway - cell viability counter screen (AID 1259367); note: potency is the fitted concentration of half-maximal effect; nearly all actives have a fitted effect of over 55% in size
Method in brief: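 Fluorescence read-out (CellTiter-Fluor, 1 hr at 37C) taken after 23 hr compound treatment of 3T3 Gli1-Luc cells stimulated with conditioned medium. Cells were seeded at 2,000 per well and pre-incubated 4 hr.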

[6] = qHTS assay to identify small molecule HDAC inhibitors (AID 1259364);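 note: wild-type HCT-116 cells with endogenous class I/II HDAC activity; potency is the fitted concentration of half-maximal effect; nearly all actives have a fitted effect of over 45% in size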
Method in brief: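 Cells (HCT-116, wild type) are seeded at 1,500 per well, incubated overnight, treated with compound in DMSO for 2 hr, then developed with HDAC-Glo I/II reagent for 30 min at room temperature.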

[7] = qHTS assay to identify small molecule agonists of the sonic hedgehog signaling (Shh) pathway - cell viability counter screen (AID 1259366); note: nearly all actives have a fitted effect of over 50% in size; note: potency is the fitted concentration of half-maximal effect
Method in brief: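 CellTiter-Fluor fluorescence read-out, 1 hr at 37C, added after 23hr compound exposure. Cells: 3T3 Gli1-Luc, an NIH/3T3 clone with stably integrated Gli1-Luc reporter, plated 4hr before compound.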

[8] = qHTS RealTime-Glo MT Cell Viability Assay in HepG2 cells - 0 hour (AID 1224889); note: nearly all actives have a fitted effect of over 50% in size; note: potency is the fitted concentration of half-maximal effect
Method in brief: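 Luminescence read-out: viable HepG2 cells reduce a prosubstrate to a NanoLuc substrate, giving a signal proportional to live cell number. Reads taken at 0, 8, 16, 24, 32 and 40 h of compound exposure at 37 C.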

[9] = biological target: Androgen receptor (Homo sapiens) (UniProt P10275); assay: qHTS assay to identify small molecule antagonists of the androgen receptor (AR) signaling pathway using the MDA cell line in the presence of 0.5 nM R1881 (AID 1259243)
Method in brief: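 Stably transfected MDA-kb2 cells express luciferase from an MMTV promoter bearing both AR and GR response elements. Compounds plus 0.5 nM R1881 (final) were incubated 16 hr at 37C without CO2, then luminescence measured.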

[10] = biological target: Estrogen receptor (Homo sapiens) (UniProt P03372); assay: qHTS assay to identify small molecule antagonists of the estrogen receptor alpha (ER-alpha) signaling pathway using the BG1 cell line in the presence of 0.1 nM 17-beta-estradiol (AID 1259244)
Method in brief: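 Antagonist mode: compounds in DMSO are pinned onto VM7Luc4E2 reporter cells, 0.1 nM final 17beta-estradiol is added, and after 22 h at 37C luciferase luminescence is measured with ONE-Glo.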

[11] = qHTS assay to identify small molecule phospholipidosis (PLD) inducers (AID 1259344; active = well fitted curve in the direction sought with a large enough effect; inconclusive = small, poorly fitted or top-dose-only effect, or another doubt; inactive = no such curve, though single readings can be large; an effect the other way counts as inactive or inconclusive; note: potency is the fitted concentration of half-maximal effect); conditions: HepG2 phospholipidosis, LipidTOX Red imaging, 24 h; series mostly up to 38.3 µM
Method in brief: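 Read-out is LipidTOX Red fluorescence (ex 595/em 615) imaged in HepG2 cells after 24 h compound exposure at 37 C, with Hoechst nuclear counterstain (ex 352/em 461) allowing per-cell normalisation.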

[12] = A CellTox Green Cytotoxicity Assay to monitor cytotoxicity in HepG2 cells - 8 hour (AID 1224890); note: potency is the fitted concentration of half-maximal effect; nearly all actives have a fitted effect of over 45% in size
Method in brief: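 Cells and non-lytic dye reagent are dispensed together (600 HepG2 cells/well) and incubated 5 h before DMSO compound transfer. Kinetic fluorescence is then recorded in the same wells during 40 h at 37 C.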

[13] = qHTS assay to identify small molecule HDAC inhibitors - cell viability counter screen (AID 1259365); note: nearly all actives have a fitted effect of over 50% in size; note: potency is the fitted concentration of half-maximal effect
Method in brief: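 HCT-116 (wild type), 1,500 cells/well, overnight 37C/5% CO2; compound in DMSO 2hr; CellTiter-Glo 30min RT; luminescence read.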
Tags give direction and shape of the fitted curve.

Sequence of UniProt P10275 (P10275 whole entry, looked up): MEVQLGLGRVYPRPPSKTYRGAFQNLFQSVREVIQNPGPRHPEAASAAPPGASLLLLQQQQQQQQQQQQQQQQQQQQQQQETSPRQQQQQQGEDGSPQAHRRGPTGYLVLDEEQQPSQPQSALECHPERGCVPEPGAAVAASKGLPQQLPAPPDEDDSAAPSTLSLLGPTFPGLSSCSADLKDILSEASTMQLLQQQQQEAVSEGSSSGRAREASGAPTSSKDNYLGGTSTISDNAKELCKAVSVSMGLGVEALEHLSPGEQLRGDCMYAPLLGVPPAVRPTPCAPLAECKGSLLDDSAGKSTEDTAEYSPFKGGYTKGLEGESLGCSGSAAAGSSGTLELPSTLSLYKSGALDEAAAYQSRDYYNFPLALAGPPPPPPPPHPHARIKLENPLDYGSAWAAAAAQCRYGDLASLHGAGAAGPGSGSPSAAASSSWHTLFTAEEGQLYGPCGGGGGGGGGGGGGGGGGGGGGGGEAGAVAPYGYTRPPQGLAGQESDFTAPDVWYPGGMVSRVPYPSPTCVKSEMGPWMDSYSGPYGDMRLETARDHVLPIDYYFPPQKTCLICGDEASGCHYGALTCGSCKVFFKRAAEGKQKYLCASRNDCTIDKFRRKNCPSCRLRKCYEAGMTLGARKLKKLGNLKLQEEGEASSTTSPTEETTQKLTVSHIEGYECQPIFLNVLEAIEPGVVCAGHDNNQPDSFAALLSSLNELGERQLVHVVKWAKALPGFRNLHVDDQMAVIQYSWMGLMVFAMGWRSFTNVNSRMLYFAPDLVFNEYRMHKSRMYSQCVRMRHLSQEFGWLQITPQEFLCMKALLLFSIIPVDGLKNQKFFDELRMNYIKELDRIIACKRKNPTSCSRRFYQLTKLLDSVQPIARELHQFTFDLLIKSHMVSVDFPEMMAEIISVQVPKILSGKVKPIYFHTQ
Sequence of UniProt P03372 (P03372 whole entry, looked up): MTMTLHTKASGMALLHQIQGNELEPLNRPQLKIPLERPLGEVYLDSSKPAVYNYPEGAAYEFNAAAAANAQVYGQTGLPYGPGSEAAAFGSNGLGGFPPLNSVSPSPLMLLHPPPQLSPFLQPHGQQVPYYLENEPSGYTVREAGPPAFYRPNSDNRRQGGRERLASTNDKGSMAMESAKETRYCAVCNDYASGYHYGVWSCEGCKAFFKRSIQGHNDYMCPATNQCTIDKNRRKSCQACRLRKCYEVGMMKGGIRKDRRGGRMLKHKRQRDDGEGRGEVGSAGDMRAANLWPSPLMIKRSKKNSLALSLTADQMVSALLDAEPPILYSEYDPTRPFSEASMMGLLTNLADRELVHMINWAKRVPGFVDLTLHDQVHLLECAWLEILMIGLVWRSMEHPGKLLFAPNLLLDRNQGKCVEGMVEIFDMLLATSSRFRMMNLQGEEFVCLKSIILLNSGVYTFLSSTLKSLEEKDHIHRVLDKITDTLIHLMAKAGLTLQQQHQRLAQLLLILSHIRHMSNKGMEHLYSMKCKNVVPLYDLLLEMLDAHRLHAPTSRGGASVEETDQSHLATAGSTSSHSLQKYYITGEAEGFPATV

Q: Which results are given for CN(C)C(=O)NC1(c2ccccc2)CCN(CC[C@@]2(c3ccc(F)c(F)c3)CN(C(=O)c3ccccc3)CCO2)CC1?
A: Potency [1]: inconclusive: 45.5 µM [cytotoxic, partial curve]; Potency [2]: inconclusive: 40.5 µM [cytotoxic, partial curve]; Potency [3]: inactive; Potency [4]: inactive; Potency [5]: inconclusive: 25.3 µM [cytotoxic, partial curve]

Q: With COc1cc2c(cc1N)oc1ccccc12 as the compound, how does the Potency [1] read?
A: Its Potency is inconclusive: 31.6 µM [cytotoxic, partial curve].

Q: What about the Potency [2] of the same compound?
A: Its Potency is inconclusive: 25.1 µM [cytotoxic, partial curve].

Q: And the Potency [6]?
A: The Potency was inconclusive: 31.3 µM [inhibitor].

Q: And the Potency [7]?
A: Its Potency is inconclusive: 70.1 µM [cytotoxic, single point].

Q: And the Potency [5]?
A: The Potency was active: 62.4 µM.

Q: What does the source list for CC(C)(C)C1=CC(=O)C(C(C)(C)C)=CC1=O?
A: Potency [1]: inconclusive: 3.38 µM [rising, partial curve]; Potency [2]: inconclusive: 21.3 µM [cytotoxic, single point]; Potency [8]: inconclusive: 16.9 µM [cytotoxic, partial curve, poor fit]; Potency [9]: inconclusive: 21.1 µM [inhibitor, partial curve]; Potency [5]: inconclusive: 29.8 µM [cytotoxic, partial curve, poor fit]

Q: Which results are given for CCO[Si](CCCN=C=O)(OCC)OCC?
A: Potency [1]: inactive; Potency [2]: inactive; Potency [10]: inconclusive: 68.6 µM [inhibitor, single point]

Q: Which Potency [1] does the source give for C[C@]12CCC(=O)C=C1C=C[C@@H]1[C@@H]2CC[C@@]2(C)[C@H]1CC[C@@]21CCC(=O)O1 here?
A: The Potency was “inactive”.

Q: And the Potency [8]?
A: Its Potency is active: 7.56 µM.

Q: What about the Potency [10] of the same compound?
A: Its Potency is inconclusive: 33.5 µM [inhibitor, single point].

Q: And the Potency [11]?
A: Its Potency is inconclusive: 15.8 µM [activator, partial curve, poor fit].

Q: And the Potency [7]?
A: Its Potency is “inactive”.

Q: For COc1cc2nc(Cl)nc(N)c2cc1OC, which Potency [1] is on record?
A: The Potency was inconclusive: 10.7 µM [cytotoxic, single point].

Q: What about the Potency [2] of the same compound?
A: Its Potency is inconclusive: 10.7 µM [cytotoxic, single point].

Q: Which Potency [1] does the source give for O=C(OCCOCCOC(=O)c1ccccc1)c1ccccc1 here?
A: Its Potency is inconclusive: 48.9 µM [cytotoxic, single point] and inconclusive: 43.6 µM [cytotoxic, partial curve].

Q: And the Potency [2]?
A: Its Potency is inconclusive: 38.8 µM [cytotoxic, partial curve] and inconclusive: 43.6 µM [cytotoxic, partial curve].

Q: With Cc1nc(-c2ccccn2)ncc1C(=O)Nn1cc(C)c2cc(F)ccc21 as the compound, how does the Potency [1] read?
A: The Potency was active: 1.55 µM.

Q: What about the Potency [2] of the same compound?
A: Its Potency is active: 1.95 µM.

Q: And the Potency [9]?
A: The Potency was inconclusive: 54.5 µM [inhibitor, partial curve].

Q: And the Potency [10]?
A: The Potency was inconclusive: 43.3 µM [inhibitor, single point].

Q: Which Potency [1] does the source give for O=C1[C@H](CC[C@H](O)c2ccc(F)cc2)[C@@H](c2ccc(O)cc2)N1c1ccc(F)cc1 here?
A: The Potency was active: 23.9 µM.

Q: And the Potency [2]?
A: Its Potency is inconclusive: 23.9 µM [cytotoxic, single point].

Q: And the Potency [10]?
A: The Potency was inconclusive: 29.8 µM [inhibitor, partial curve, poor fit].

Q: With Cc1cc(NC(=O)C(=O)O)cc(C)c1Oc1ccc(O)c2c1CCC2 as the compound, how does the Potency [1] read?
A: The Potency was “inactive”.

Q: What about the Potency [8] of the same compound?
A: The Potency was inconclusive: 54.9 µM [cytotoxic, partial curve, poor fit].

Q: Which results are given for c1ccc2c(c1)ccc1c3ccccc3ccc21?
A: Potency [1]: inactive; Potency [8]: inactive; Potency [6]: inconclusive: 7 µM [inhibitor, full curve]

Q: For Cc1ccc(/C(=C\CN2CCCC2)c2ccccn2)cc1, which Potency [1] is on record?
A: Its Potency is inconclusive: 20.5 µM [cytotoxic, full curve].

Q: And the Potency [8]?
A: Its Potency is “inactive”.

Q: And the Potency [7]?
A: The Potency was inconclusive: 45.5 µM [cytotoxic, partial curve].

Q: What about the Potency [5] of the same compound?
A: Its Potency is active: 36.2 µM.

Q: With O=C(N[C@@H](Cc1ccccc1)[C@@H](O)C(=O)N1C[C@@H](O)[C@@H](O)C1)c1cc2cc(Cl)ccc2[nH]1 as the compound, how does the Potency [1] read?
A: Its Potency is inconclusive: 54.9 µM [cytotoxic, partial curve, poor fit].

Q: What about the Potency [12] of the same compound?
A: The Potency was inconclusive: 61.6 µM [activator, single point].

Q: What about the Potency [7] of the same compound?
A: Its Potency is inconclusive: 48.6 µM [cytotoxic, partial curve].

Q: And the Potency [5]?
A: The Potency was inconclusive: 6.11 µM [cytotoxic, full curve, poor fit].

Q: Which results are given for CCN(CC)CCNC(C(=O)OCCC(C)C)c1ccccc1 (stereo unspecified)?
A: Potency [1]: inactive; Potency [8]: inactive; Potency [13]: inactive

Q: With Nc1ccc(N)c2c1C(=O)c1ccccc1C2=O as the compound, how does the Potency [1] read?
A: The Potency was inconclusive: 12.3 µM [cytotoxic, full curve].

Q: What about the Potency [2] of the same compound?
A: Its Potency is inconclusive: 12.3 µM [cytotoxic, full curve].

Q: What about the Potency [4] of the same compound?
A: The Potency was inconclusive: 24.3 µM [cytotoxic, partial curve].

Q: What about the Potency [9] of the same compound?
A: The Potency was inconclusive: 30.6 µM [inhibitor, full curve, poor fit].

Q: What about the Potency [6] of the same compound?
A: The Potency was active: 21.7 µM.

Q: And the Potency [13]?
A: The Potency was active: 30.6 µM.
